Results: PubChem BioAssay AID1814 (Broad Institute, 2009)
The campaign covered roughly 300,000 compounds. About 22,000 (7.3%) were called active. The shares of active, inactive and inconclusive entries below differ from those in the screen. No stated cut-off is given here; in the data, active means activity score below about -60%; inconclusive means mostly about -28% to -61%; inactive means positive scores.

Assay: Activators via SNCA 5'UTR binding, MLPCN (AID 1814)
Conditions: alpha-synuclein 5'UTR reporter, activators screen; stronger effect = lower value; tested at 7.5 µM

Activity score, inactive:
O=C(N/N=C/c1ccccc1Cl)c1n[nH]c2c1CCCC2 83.5%, O=C(Nc1ccc([N+](=O)[O-])cc1)C(=O)Nc1cccc(C(=O)O)c1 102%, CC(=O)NC(c1cccc([N+](=O)[O-])c1)c1ccc2cccnc2c1O (stereo not drawn) 123%, CCOc1ccc(C(Nc2cccnc2)c2cc(Cl)c3cccnc3c2O)cc1 (stereo not drawn) 66.8%, Cc1cc(/C=C2\Cc3ccccc3C2=O)c(C)n1-c1ccccc1 51.6%, COc1cc(-c2ccc(=O)[nH]n2)ccc1OC(F)F 86.7%, COc1ccc2c(c1)sc1nc(-c3ccccc3)cn12 105%, COC(=O)c1c(-c2ccc(C)cc2)csc1NC(=O)c1c(-c2ccccc2)noc1C 67.9%, CN(C)c1ccc(/C=N/Nc2cccc(C(=O)O)c2)cc1 77%, Cc1nc(SCC(=O)Nc2nc3ccccc3s2)c(C#N)c(C)c1C 99.9%, O=c1c2ccc([N+](=O)[O-])c3cccc(c32)c2nc3ccccc3n12 79%, CCCc1cc(=O)n2[nH]cc(-c3ccc(Cl)cc3)c2n1 70.9%, C=CCn1c(SCC(=O)c2[nH]c(C)c(C(=O)OCC)c2C)nc2scc(-c3ccccc3)c2c1=O 57.2%, Cc1ccccc1C(=O)N1CCN(c2ccc(NC(=O)c3ccc4c(c3)OCO4)cc2)CC1 47.7%, CC(C)(C)c1ccc(C(O)CCCN2CCC(C(O)(c3ccccc3)c3ccccc3)CC2)cc1 (stereo not drawn) 111%, COc1ccc(C(=O)Nc2cccc(C(=O)N/N=C/c3ccc(OC)cc3OC)c2)cc1 83.2%, O=C(O)CCCc1ccc2c(c1)CCc1ccccc1-2 109%, COc1ccc(COC(=O)c2cc([N+](=O)[O-])ccc2N2CCOCC2)cc1F 68.3%, Cc1cccc(CN2C(=O)/C(=C\c3ccc(C(=O)NCCCN4CCN(C)CC4)cc3)Oc3ccccc32)c1 94.6%, COc1ccc([N+](=O)[O-])cc1Nc1c2ccccc2nc2ccccc12 76.5%, C=CCN(C(=O)CCc1ccccc1OC)c1nc(-c2ccc(S(C)(=O)=O)cc2)cs1 70.8%, CCCNC(=O)c1ccc2c(=O)c(O)c(-c3ccsc3)[nH]c2c1 86.7%, COc1cc(/C=N/NS(=O)(=O)c2ccc3ccccc3c2)ccc1OCc1ccc(C(=O)O)cc1 84.3%, Cc1ccc(-c2nc(NC(=O)c3nn(C)cc3[N+](=O)[O-])sc2C)cc1 99.4%, Cc1ccc(C)c(Nc2c([N+](=O)[O-])cc(C(=O)N3CC(=O)Nc4ccccc43)cc2[N+](=O)[O-])c1 77.6%, Cc1c(/N=C(\[O-])Nc2ccc(Br)cc2)sn[n+]1C 89.3%

Activity score, active:
CC1CCC2(CC1)Nc1ccccc1C(=O)N2c1ccccc1 (stereo not drawn) -105%, CCC1=Nc2cc(C(=O)NCC3CCCO3)ccc2Sc2ccc(Cl)cc21 (stereo not drawn) -73.7%, O=C(NCCOc1ccccc1Cl)c1cc(F)c(F)cc1Cl -123%, CCCCc1c(C)nc2cc(-c3ccco3)[nH]n2c1=O -68.1%, O=c1nc2sc3ccccc3n2c(=O)n1-c1ccc(Cl)cc1 -189%, O=C(N/N=C/c1ccccn1)c1ccccc1 -89.8%, O=[N+]([O-])c1ccc(N/N=C/c2cccs2)nc1 -187%, O=C(O)c1ccc(Cn2cnc3scc(-c4ccccc4)c3c2=O)cc1 -142%, O=[N+]([O-])c1cccc(/C=N/Nc2ncc(Br)cn2)c1 -194%, CCOc1ccc(C(=O)Nc2cccc([N+](=O)[O-])c2)cc1Br -138%, Nc1c(-c2ccc3c(c2)OCCO3)oc2ccccc2c1=O -145%, CC1CCCCN1C(=O)CSc1nc2ccsc2c(=O)n1Cc1ccccn1 (stereo not drawn) -120%, CCN(CC)C(=O)c1sc2nc(-c3ccccc3)ccc2c1N -178%, N#Cc1cccc(NC(=O)CSc2nnc(-c3n[nH]c4ccccc34)o2)c1 -277%, COC(=O)c1sccc1NC(=O)COc1ccc(Cl)cc1Cl -162%

Activity score, inconclusive:
O=C(Nc1ncccc1O)c1cc2ccccc2o1 -54.3%, Cc1ccc(C)c(C(=O)CSc2nnc(C)s2)c1 -42.4%, CC(C)(C)OC(=O)CN1C(=O)S/C(=C\c2ccc(-c3cccc(C(=O)O)c3)o2)C1=O -50.9%, COc1cc2c(cc1NC(=O)CCCN1C(=O)CCC1=O)oc1ccccc12 -57.2%, COc1cc(OC)c(C(=O)OCC(=O)N2CC(=O)Nc3ccccc32)cc1OC -37.4%, O=C(Nc1ccccc1N1CCOCC1)c1ccc([N+](=O)[O-])o1 -44.5%, O=C(Nc1nnc(S(=O)(=O)N2CCCCCC2)s1)c1ccccc1F -57.1%, COc1cccc(C(=O)NC(=S)Nc2ccc([N+](=O)[O-])cc2C)c1 -51.2%, COc1ccc(C(=O)c2coc3c2C(=O)C(=O)c2ccccc2-3)cc1 -41.9%, CC(C)(C)S(=O)(=O)c1ccsc1C(=O)O -35.1%, O=C(NC1CCCCC1)c1cc(Cl)nc2ccccc12 -19.4%, CCCCNC(=S)NNC(=O)c1csc2ccccc12 -50.7%, Cc1csc(NC(=O)c2cncc(Br)c2)n1 -46.1%, Cc1ccc(NC(=O)Nc2cc(S(=O)(=O)N(C)C)ccc2C)cc1 -59.3%, O=C(NC(=S)Nc1cccc2c(O)cccc12)c1ccco1 -59.7%, CCOc1ccc(NC(=O)Cc2ccccc2)cc1 -52.9%, O=C(/C=C/c1ccccc1Cl)NCCc1ccc(F)cc1 -51.8%, Clc1cccc(Cl)c1CSc1nnc2ccccn12 -59.4%, COc1cc(/C=N/NC(=O)c2cccnc2)ccc1OCC(=O)Nc1ccc(C)cc1 -53.6%, CN(C)c1nc(N)nc(-c2nc3ccccc3s2)n1 -54.3%, Cc1cc2cc3c(N)[nH]nc3nc2cc1C -55.2%, O=C(CSc1nnc(-c2ccco2)n1Cc1ccccc1)OC1CCCCC1 -43.7%, c1ccc(COc2ccc(CNn3cnnc3)cc2)cc1 -45.4%, O=C(OCc1cc(=O)n2c(n1)sc1ccccc12)c1cccc(O)c1 -52.4%, CN(C)C(CNC(=O)c1ccc(-c2ccccc2)cc1)c1ccccc1 (stereo not drawn) -43.4%, Cn1nc2c3ccccc3n(Cc3ccccc3)c2nc1=S -55.8%, N#Cc1ccc(CSC2=NCCN2)cc1 -50.2%, COc1cc(Cl)c(C)cc1NC(=O)COc1ccccc1[N+](=O)[O-] -60.3%, O=C(N/N=C/c1ccccc1OC(=O)c1ccc2c(c1)OCO2)c1ccccc1 -52%, CC(C)Oc1cccc(C(=O)NC(=S)Nc2ccc(N3CCN(C)CC3)cc2)c1 -56.2%, O=C1C(Cl)=C(NCC2CCCO2)C(=O)N1Cc1ccccc1 (stereo not drawn) -59.8%, C(=C\n1nnc2ccccc21)/c1ccccn1 -58.3%, CCN1CCN(c2ccc(NC(=O)c3cccc(N4CCCC4=O)c3)cc2)CC1 -61.4%, O=C(COc1ccc(Cl)cc1)Nc1nnc(-c2ccc3c(c2)CCCC3)o1 -53%, CCCCCc1c(C)nc(Nc2ccccc2)[nH]c1=O -38.6%, CSc1ccc(/C=N/Nc2nc(C)cc(=O)[nH]2)cc1 -60.6%, CCOC(=O)c1ccc(NC(=O)Cn2cccc2)cc1 -51.5%, COc1cc2c(cc1OC)C(c1ccccc1)N(C(=O)c1ccco1)CC2 (stereo not drawn) -55.2%, C/C(=N\NC(=O)c1ccncc1)c1cccnc1 -26.1%, CCOC(=O)c1cnc(-n2nc(C)cc2C)nc1NC -46.9%, Cc1ccc(NC(=O)C(NCc2ccccn2)c2ccccc2)cc1 (stereo not drawn) -49.5%, COc1ccc(/C=C/C(=O)Nc2ccc(C)cc2)cc1S(=O)(=O)N1CCOCC1 -60%, O=C(Oc1oc(-c2ccco2)nc1C=Nc1ccccc1)c1ccco1 -60.3%, Cn1ccnc1SCC(=O)Nc1ccc(Br)cc1C(F)(F)F -56.9%, Clc1ccc(/C=N/c2c(-c3ccc(Cl)cc3)nc3n2CCS3)cc1 -43.7%, CN(C)S(=O)(=O)c1ccc(C(=O)Nc2ccccc2[N+](=O)[O-])cc1 -59.4%, Cc1ccc(C)c(NC(=O)C(Sc2ncnc3ccccc23)c2ccccc2)c1 (stereo not drawn) -56.9%, Cc1nc(C)c(C(=O)Nc2ccc(C)c(F)c2)o1 -59.4%, Oc1c(Br)cc(Br)cc1C=Nc1ccc2c(c1)OCCO2 -49.4%, CC1CCCCN1C(=O)COC(=O)/C=C/c1ccc2ccccc2n1 (stereo not drawn) -57.8%, Cc1ccnc(NS(=O)(=O)c2ccc(NC(=O)c3ccc([N+](=O)[O-])s3)cc2)n1 -36.4%, O=C(NCCc1ccccc1)c1cc(=O)c2ccccc2o1 -48.3%
